According to publication PMC7819943, “Rice protein-binding microarrays: a tool to detect cis-acting elements near promoter regions in rice”:
This is one part of the list.

biological target: T1, OsWOX13 (Oryza sativa, UniProt Q5QMM3 1-267); assay: protein-binding microarray (RPBM); PBS, 2% BSA, 51.3 ng/ul salmon testes DNA, 50 uM zinc acetate, 200 nM TF, 25 C, 1 h; high values mean tight binding; conditions: protein: recombinant; tags: N-terminal polyhistidine and DsRed monomer fusion (pET32a); label: CyDye5-dUTP incorporated in the synthesized complementary strand; 3' TTTTT single-stranded linker to array surface; dsDNA, one strand shown
T1 sequence: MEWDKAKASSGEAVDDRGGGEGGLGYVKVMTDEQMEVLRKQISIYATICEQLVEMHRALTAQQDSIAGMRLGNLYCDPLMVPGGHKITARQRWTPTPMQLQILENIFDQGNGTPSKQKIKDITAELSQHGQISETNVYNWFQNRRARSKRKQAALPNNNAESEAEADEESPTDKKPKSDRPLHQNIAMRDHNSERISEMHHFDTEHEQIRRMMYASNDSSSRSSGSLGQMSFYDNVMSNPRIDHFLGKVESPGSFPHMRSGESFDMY
Method in brief: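 Binding signal is defined as the fluorescence intensity of each feature in arbitrary units, read on an Axon 4000B scanner. Transcription factors with N-terminal polyhistidine and DsRed fusions came from E. coli BL21-CodonPlus and were purified on Ni–NTA. They were incubated at 200 nM for 1 h at 25 °C on a custom Agilent array that had been made double-stranded with Cy5-dUTP, with 50 µM zinc acetate present, and the array was washed.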

| Sequence | binding signal |
| --- | --- |
| ACCGTATAATTTTGCAAAATGATCCCTGTTTTGGACTTGGCGGAGTCACCTAGTGCAG | 7640 fluorescence intensity (a.u.) |
| AGTCACGCTTTGAACGCTAATTAGCGTTCTCGGGCGGCGGCGGAGTCACCTAGTGCAG | 3320 fluorescence intensity (a.u.) |
| TCAATCAAATTAATCCACCAGTCAGGAGTAACTCCTTTGACGGAGTCACCTAGTGCAG | 4070 fluorescence intensity (a.u.) |
| TGCCTCTATCACATTCTTTCTTGTTCACATTTCCTCTTCTCGGAGTCACCTAGTGCAG | 3180 fluorescence intensity (a.u.) |
| AATATATTTAAATTGATTTTAGCTATTTTACACCACGGTTCGGAGTCACCTAGTGCAG | 28900 fluorescence intensity (a.u.) |
| CCCCTGATAATTGCGTCGTTGTACCATGGCTGTGAGGGCTCGGAGTCACCTAGTGCAG | 19900 fluorescence intensity (a.u.) |
| ATAGATAGCTTAATTAGCAGCTAGAGATGTGTCTCTAGCTCGGAGTCACCTAGTGCAG | 10400 fluorescence intensity (a.u.) |
| AGGCGTTAATTAACAAAGTGGTTAAGCCCTTAATGGCCACCGGAGTCACCTAGTGCAG | 18200 fluorescence intensity (a.u.) |
| AAACCAAAATATATTGATTACATTTCAATTCAAATTCAATCGGAGTCACCTAGTGCAG | 4350 fluorescence intensity (a.u.) |
| ATCCGAGAGAATCAATCAGCGGGTGTAGAGAAGCGATCGCCGGAGTCACCTAGTGCAG | 6080 fluorescence intensity (a.u.) |
| GGGGATAACTTGTGGGAAATTGGGTAGAAAGGGAGTTTTGCGGAGTCACCTAGTGCAG | 3820 fluorescence intensity (a.u.) |
| CCAGGTGGATTGGCAATTTGGGATTTTGCATTAAAACTTGCGGAGTCACCTAGTGCAG | 37500 fluorescence intensity (a.u.) |
| TGAGATAATTGGTAATACTCCTCCCATTCTTGAACAAGTACGGAGTCACCTAGTGCAG | 24900 fluorescence intensity (a.u.) |
| AGCCTTAACTATTTCCATAATCATATTTTCTCGGAAATGACGGAGTCACCTAGTGCAG | 5820 fluorescence intensity (a.u.) |
| ACTGAATAAATTGGTACTAACTTGACTGCTGTTATTCTTTCGGAGTCACCTAGTGCAG | 35400 fluorescence intensity (a.u.) |
| CTGTGAATTTATGAATTAATTAAATATTTTGTTAAATAAACGGAGTCACCTAGTGCAG | 6470 fluorescence intensity (a.u.) |
| CACAATTCCTTCTAATTATTTGATAATCAAGTTTCTCCTTCGGAGTCACCTAGTGCAG | 9620 fluorescence intensity (a.u.) |
| GCCTTGATTGATCTTGTAACTTGGCATGGTCCACAAGAAACGGAGTCACCTAGTGCAG | 28900 fluorescence intensity (a.u.) |
| GTTAGATTAGATTGGTACCTCATGTTACCTCGTACCTCATCGGAGTCACCTAGTGCAG | 55700 fluorescence intensity (a.u.) |
| TTTAATTTTAACGTTAACTAAACACACCCTTAGTACTGGACGGAGTCACCTAGTGCAG | 27400 fluorescence intensity (a.u.) |
| GTTTGTACACGTGATTAGCAAGAACCAAACCATGTTTCAACGGAGTCACCTAGTGCAG | 10200 fluorescence intensity (a.u.) |

| Sequence | binding signal |
| --- | --- |
| AATAACAAATACTTAATTAATCATGCGTTAATACAAACATCGGAGTCACCTAGTGCAG | 19500 fluorescence intensity (a.u.) |
| CATAGATTAATTAGGCTCAATAGATTCGTCTCGCGAATTACGGAGTCACCTAGTGCAG | 16200 fluorescence intensity (a.u.) |
| GATCATGACTGGCGAGTCAATGTACAGGACATGAAAACCACGGAGTCACCTAGTGCAG | 3550 fluorescence intensity (a.u.) |
| CATAAATAATCATACCAAACAACACAAGACATAAAGGAAGCGGAGTCACCTAGTGCAG | 4060 fluorescence intensity (a.u.) |
| CAATTAATTGCTTATCCGTGGCCTTGATCAATTACTGTGCCGGAGTCACCTAGTGCAG | 56600 fluorescence intensity (a.u.) |
| AATTTAAAATTTCTCAAATTGATCATTATATAACCGCATGCGGAGTCACCTAGTGCAG | 8700 fluorescence intensity (a.u.) |
| GCAATGATTTCCCAAGCTTAAACCCCTATGCTTCCTCGGTCGGAGTCACCTAGTGCAG | 5930 fluorescence intensity (a.u.) |
| CGATCATGATTAGCAACGCAATTAAATTCCCCAATCACCCCGGAGTCACCTAGTGCAG | 39400 fluorescence intensity (a.u.) |
| TTAGTACTATTAATTTGGTGGGGTTGGGTGGGTGCTGTAACGGAGTCACCTAGTGCAG | 5840 fluorescence intensity (a.u.) |
| CCAAATTTGATATGTTTGCAGCTGCACGCTGCTATCACACCGGAGTCACCTAGTGCAG | 16800 fluorescence intensity (a.u.) |
| ACTTTTCTATTTAATTTTATCTATTTTCTTAATAACTATGCGGAGTCACCTAGTGCAG | 4340 fluorescence intensity (a.u.) |
| ATATAATTAAATGATTAATTAATTAGTACCGTTTTACTTGCGGAGTCACCTAGTGCAG | 65500 fluorescence intensity (a.u.) |
| ATGGCTGAGTTGATTGGTCTTTCATTTGCTAAAGGTATGACGGAGTCACCTAGTGCAG | 16900 fluorescence intensity (a.u.) |
| GGGATTAATTAAATATGGTATGTTATAAAGATAACTAATACGGAGTCACCTAGTGCAG | 10300 fluorescence intensity (a.u.) |
| AGTCCAATTGAATAAATAAATAATGAAATAAATGTAGAGGCGGAGTCACCTAGTGCAG | 6420 fluorescence intensity (a.u.) |
| CAGTGTTCTATCAGTACATGATTTGGCAATAAACTTGGCTCGGAGTCACCTAGTGCAG | 4690 fluorescence intensity (a.u.) |
| AAAATTTATTTATACATTAATGGTTTAGAAAACTTATTGTCGGAGTCACCTAGTGCAG | 4820 fluorescence intensity (a.u.) |
| AGTTATTGGTGGTACAATGATTTACAATGGTATCTATGTGCGGAGTCACCTAGTGCAG | 3200 fluorescence intensity (a.u.) |
| GCTACATAATTATTCTGACTATTCGATCAGAATGATACGTCGGAGTCACCTAGTGCAG | 14900 fluorescence intensity (a.u.) |
| TCTTTATCAATCTCAAGATATACTAGTCAGTCTTTCGGATCGGAGTCACCTAGTGCAG | 3630 fluorescence intensity (a.u.) |
| GTTCGATTGAGATAGCTCTTAACATCAGTGACTTCTAGCCCGGAGTCACCTAGTGCAG | 3800 fluorescence intensity (a.u.) |
